Laboratory results published in PubChem BioAssay AID1347165 (National Center for Advancing Translational Sciences (NCATS), 2019).
In all, about 220,000 compounds went through this assay and about 5,700 (2.6%) were called active. Inconclusive means that the source gave no clear call. Such entries were picked first, then a sample of the others. The call rests on the fitted dose curve; in most records, active means well fitted inhibition curve with a large enough effect; inconclusive means small, poorly fitted or top-dose-only effect; inactive means no such curve, though single readings can be large or run the other way. Where the call is inconclusive, the potency comes from a doubtful curve fit.
Further: nearly all actives have a fitted effect of over 70% in size.
Potency means the concentration at half of the fitted maximal effect; tags describe the fitted curve by direction and shape.
Wherever activity change, negative = inhibition is given: 0% is about no effect.

What follows are compounds tested against Lysine-specific demethylase 5B (Homo sapiens) (UniProt Q9UGL1) (assay: Primary screen for KDM5B Histone Demethylases FDH-coupled qHTS). Conditions: FDH-coupled NADH fluorescence (FDH is formaldehyde dehydrogenase); activity change, negative = inhibition: at 57.7 µM (top of the series) unless noted.
Sequence of UniProt Q9UGL1 (Q9UGL1 whole entry, looked up): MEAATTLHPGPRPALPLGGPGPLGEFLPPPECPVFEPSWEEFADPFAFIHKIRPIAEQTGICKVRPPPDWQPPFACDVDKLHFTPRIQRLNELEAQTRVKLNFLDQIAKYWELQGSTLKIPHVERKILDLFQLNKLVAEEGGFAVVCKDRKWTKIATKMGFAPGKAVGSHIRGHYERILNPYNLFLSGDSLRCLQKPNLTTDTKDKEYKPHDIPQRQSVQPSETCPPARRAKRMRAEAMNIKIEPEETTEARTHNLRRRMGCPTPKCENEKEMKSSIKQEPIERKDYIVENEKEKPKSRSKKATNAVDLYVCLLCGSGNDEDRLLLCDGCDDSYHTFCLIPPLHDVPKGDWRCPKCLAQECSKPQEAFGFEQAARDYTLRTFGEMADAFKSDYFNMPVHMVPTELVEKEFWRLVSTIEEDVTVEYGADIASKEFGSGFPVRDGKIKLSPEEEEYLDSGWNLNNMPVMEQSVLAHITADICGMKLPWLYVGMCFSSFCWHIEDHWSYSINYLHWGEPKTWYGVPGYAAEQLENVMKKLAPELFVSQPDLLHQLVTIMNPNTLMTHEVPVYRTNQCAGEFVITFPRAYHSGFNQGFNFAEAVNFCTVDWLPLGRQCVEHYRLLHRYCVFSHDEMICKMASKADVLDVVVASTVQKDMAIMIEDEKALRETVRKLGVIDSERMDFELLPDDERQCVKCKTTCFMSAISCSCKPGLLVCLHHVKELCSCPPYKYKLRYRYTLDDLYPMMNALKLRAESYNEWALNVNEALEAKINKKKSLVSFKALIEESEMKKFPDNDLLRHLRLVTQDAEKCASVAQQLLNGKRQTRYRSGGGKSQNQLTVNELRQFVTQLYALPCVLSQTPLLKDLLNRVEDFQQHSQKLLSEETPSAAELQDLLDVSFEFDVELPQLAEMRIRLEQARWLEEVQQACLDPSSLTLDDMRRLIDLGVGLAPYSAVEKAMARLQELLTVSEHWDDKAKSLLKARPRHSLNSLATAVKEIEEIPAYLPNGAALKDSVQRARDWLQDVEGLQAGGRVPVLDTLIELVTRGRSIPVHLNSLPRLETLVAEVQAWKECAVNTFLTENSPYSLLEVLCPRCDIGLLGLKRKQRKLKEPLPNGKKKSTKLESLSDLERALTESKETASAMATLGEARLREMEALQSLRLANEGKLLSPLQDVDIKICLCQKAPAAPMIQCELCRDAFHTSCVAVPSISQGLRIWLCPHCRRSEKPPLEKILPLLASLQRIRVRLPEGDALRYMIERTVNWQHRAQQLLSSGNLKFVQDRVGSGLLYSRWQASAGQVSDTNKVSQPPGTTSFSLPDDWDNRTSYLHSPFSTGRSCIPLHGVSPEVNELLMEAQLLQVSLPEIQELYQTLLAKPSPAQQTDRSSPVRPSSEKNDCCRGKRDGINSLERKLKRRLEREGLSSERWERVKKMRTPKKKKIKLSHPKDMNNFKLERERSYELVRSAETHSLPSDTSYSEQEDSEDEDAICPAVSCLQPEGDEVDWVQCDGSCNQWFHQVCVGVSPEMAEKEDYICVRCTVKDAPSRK
Procedure, shortened: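 qHTS format, multiple compound concentrations. Buffer 50 mM HEPES pH 7.5/0.01% Tween-20; 200 nM KDM5BΔAP final; 10 min compound preincubation; substrate-mix levels 12.5 µM peptide, 25 µM α-KG, 0.25 mM NAD⁺; 30 min RT; ΔRFU.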
In the case of `CC(C)CN1CCNC(=O)C1CC(=O)NC(C)(C)Cc1ccc(F)cc1` (stereo not given), the Potency is reported as inconclusive: 35.5 µM [inhibitor, single point]. `O=C(Nc1c(Cl)cccc1Cl)C1CC1(c1ccccc1)c1ccccc1` (stereo not given) was tested, and the “activity change, negative = inhibition” value was inactive: -11.6%. For `Cc1ccccc1OCCSc1nc2ccc(NC(=O)c3ccccc3)cc2s1`, the Potency was inconclusive: 31.6 µM [inhibitor, partial curve, poor fit]. For `O=C(Nc1ncc(-c2cccc(F)c2)c2c1OCC2)c1ccc(Cl)cc1`, the Potency was inconclusive: 44.7 µM [inhibitor, partial curve, poor fit]. For `CCn1c(C(=O)NCc2ccccc2C)cc2oc3ccccc3c21`, the Potency was inconclusive: 35.5 µM [inhibitor, partial curve, poor fit]. In the case of `Cc1ccc(N/N=C/C=C/c2ccccc2[N+](=O)[O-])c(C)c1`, the Potency is reported as inconclusive: 22.4 µM [inhibitor, single point]. `CCCCCCc1ccc(C(=O)Nc2ccc(C)cc2)cc1` was tested, and the “activity change, negative = inhibition” value was inactive: -6.22%. In the case of `Cc1ccc(-c2cc(C(=O)O)c3cc(Cl)ccc3n2)cc1C`, the Potency is reported as inconclusive: 31.6 µM [inhibitor, partial curve, poor fit]. With `Cc1cc2c(cc1S(=O)(=O)N1CCC(C(=O)N3CCCC3)CC1)OCC(=O)N2` the “activity change, negative = inhibition” value was inactive: 7.47%. `CC(NC(=O)c1ccc(-c2ccco2)cc1)c1ccccc1` (stereo not given) was tested, and the Potency was inconclusive: 20 µM [inhibitor, partial curve, poor fit]. `COC(=O)C(OC(=O)c1[nH]c(C)c(C(C)=O)c1C)c1ccccc1Cl` (stereo not given) was tested, and the “activity change, negative = inhibition” value was inactive: 6.76%. In the case of `COc1ccc(Cn2ccn(Cc3cccc(C)c3)c(=O)c2=O)cc1`, the Potency is reported as inconclusive: 39.8 µM [inhibitor, single point]. In the case of `CC(C)n1c(Br)nc2c1c(=O)[nH]c(=O)n2C`, the “activity change, negative = inhibition” value is reported as inactive: 4.82%. `CCOc1ccccc1-c1noc(-c2nnn3c2COC(c2ccc(F)cc2)C3)n1` (stereo not given) was tested, and the Potency was inconclusive: 17.8 µM [inhibitor, single point]. For `CCOc1ccc(-n2c(SCC(=O)NCC3CCCO3)nc3c([nH]c4ccccc43)c2=O)cc1` (stereo not given), the Potency was inconclusive: 1.12 µM [inhibitor, partial curve, poor fit]. For `CS(=O)(=O)N1CCc2ccc(C(=O)Nc3ccc(F)cc3Cl)cc21`, the Potency was inconclusive: 39.8 µM [inhibitor, single point]. In the case of `Cn1c(=O)c(=O)n(C)c2cc(S(=O)(=O)N3CCCC3C(=O)Nc3ccccc3F)ccc21` (stereo not given), the Potency is reported as inconclusive: 39.8 µM [inhibitor, single point]. For `Cc1ccc(OCCNC(=O)c2cc3ccccc3n2C)cc1`, the “activity change, negative = inhibition” value was inactive: -28.8%. For `CCOC(=O)CSc1ccc2nnc(CCNS(=O)(=O)c3ccccc3)n2n1`, the Potency was inconclusive: 31.6 µM [inhibitor, single point]. In the case of `C=CCC1(CC=C)CNCCN1`, the Potency is reported as inconclusive: 12.6 µM [inhibitor, partial curve, poor fit]. In the case of `Cc1ccccc1COc1ccc(C(=O)O)cc1`, the “activity change, negative = inhibition” value is reported as inactive: 3.2%. In the case of `O=C(Cc1ccc(Br)cc1)NC1=NCCS1`, the “activity change, negative = inhibition” value is reported as inactive: 18.2%. For `O=C(NCCc1c[nH]c2ccccc12)c1cc(Cl)cc(Cl)c1`, the “activity change, negative = inhibition” value was inactive: -6.64%. With `O=C(/C=C/c1cccc(C(F)(F)F)c1)c1cc(Cl)ccc1Cl` the Potency was inconclusive: 20 µM [inhibitor, partial curve, poor fit]. In the case of `N#Cc1cccc(CN2CCC[C@H]2c2nc(-c3cncnc3N)no2)c1`, the “activity change, negative = inhibition” value is reported as inactive: -0.112% [at 86.2 µM]. With `CSc1ccc(/C=C/C(=O)c2ccc(Cl)c(Cl)c2Cl)cc1` the “activity change, negative = inhibition” value was inactive: -20.1%. `C=CCOC(=O)C(C#N)c1nc2ccccc2nc1N1CCN(C(c2ccccc2)c2ccccc2)CC1` (stereo not given) was tested, and the Potency was inconclusive: 14.1 µM [inhibitor, single point]. In the case of `CCOc1ccc(NS(=O)(=O)c2ccc(C(=O)NC3CCN(CC)CC3)cc2)cc1`, the “activity change, negative = inhibition” value is reported as inactive: 5.81%. With `COc1ccc(-c2nc(CSCC(=O)NC3CCCCCC3)c(C)o2)cc1OC` the Potency was inconclusive: 39.8 µM [inhibitor, single point]. In the case of `c1ccc(N2CCN(Cc3cc(CC4(NCc5ccncc5)COC4)no3)CC2)cc1`, the Potency is reported as inconclusive: 39.8 µM [inhibitor, partial curve, poor fit]. `Cc1ccc(C(=O)N2CCN(c3cc(Cl)ccc3C)CC2)s1` was tested, and the “activity change, negative = inhibition” value was inactive: -3.65%. `CN1CCc2nc(N3CCN(CC4CCCCC4)CC3)sc2C1` was tested, and the Potency was inconclusive: 14.1 µM [inhibitor, partial curve]. In the case of `COc1ccc(NC(=O)c2sc3c(c2C)C(c2cccc(O)c2)CC(=O)N3)cc1` (stereo not given), the “activity change, negative = inhibition” value is reported as inactive: -20.8%. With `COc1cccc(CNC(=O)[C@@H]2C[C@@H](O)CN2C2CCN(C(=O)CC(C)C)CC2)c1` the “activity change, negative = inhibition” value was inactive: -8.66%. With `O=C1CSc2ccc(C(=O)NN(c3ccccc3)c3ccccc3)cc2N1` the “activity change, negative = inhibition” value was inactive: 14%. `Cc1nn(C)c2nc(C(C)C)cc(C(=O)N3CCN(c4ncccn4)CC3)c12` was tested, and the Potency was inconclusive: 28.2 µM [inhibitor, single point]. For `CC(NC(=O)COc1ccccc1C#N)C12CC3CC(CC(C3)C1)C2` (stereo not given), the “activity change, negative = inhibition” value was inactive: -6.28%. In the case of `Cc1cc(C)nc(SCc2nc3cc(NC(=O)c4ccc(F)c(Cl)c4)ccc3n2C)n1`, the Potency is reported as inconclusive: 1.78 µM [inhibitor, partial curve, poor fit]. In the case of `CC(C)Oc1ccc(C(=O)Nc2ccc3c(c2)CCCN3C(=O)c2cccs2)cc1`, the Potency is reported as inconclusive: 17.8 µM [inhibitor, partial curve, poor fit]. In the case of `O=C1CN(Cc2ccc(-c3cnc4c(OCc5ccccc5)nccn34)cc2)CCN1`, the Potency is reported as active: 35.5 µM. With `Cc1cc2cc(NS(=O)(=O)c3ccc4ccccc4c3)ccc2[nH]1` the “activity change, negative = inhibition” value was inactive: 5.08%. In the case of `COCCn1c(SC(C)C(=O)Nc2ccc(Cl)cn2)nc2ccccc21` (stereo not given), the “activity change, negative = inhibition” value is reported as inactive: -1.31%. With `FC(F)(F)c1cc(Cl)c2n[nH]c(=S)n2c1` the Potency was inconclusive: 39.8 µM [inhibitor, single point]. `Cc1ccc2oc(=O)n(CCC(=O)N3CCc4c(nc(C)[nH]c4=O)C3)c2c1` was tested, and the “activity change, negative = inhibition” value was inactive: -5.44%. `O=C(Nc1c(C(=O)N2CCN(c3ccc(F)cc3)CC2)oc2ccccc12)c1c(F)cccc1F` was tested, and the Potency was inconclusive: 14.1 µM [inhibitor, partial curve, poor fit]. In the case of `CCn1c2c(c(=O)n1-c1ccccc1)CCN(Cc1ncccn1)C2`, the Potency is reported as inconclusive: 39.8 µM [inhibitor, partial curve, poor fit]. In the case of `CNC(=O)[C@@H]1C[C@H](Oc2ccccc2)CN1C(=O)c1ccc2ncccc2c1`, the Potency is reported as inconclusive: 28.2 µM [inhibitor, partial curve]. In the case of `Cc1c(C(=O)N(Cc2ccc(N(C)C)cc2)C2CCS(=O)(=O)C2)oc2ccccc12` (stereo not given), the Potency is reported as inconclusive: 31.6 µM [inhibitor, single point]. In the case of `Cc1noc(C)c1CNC(=O)CC(C)(C)C`, the “activity change, negative = inhibition” value is reported as inactive: -6.27%. For `CN(C)c1ccc(-c2nc3cnccn3c2NC2CCCC2)cc1`, the Potency was inconclusive: 8.91 µM [inhibitor, partial curve, poor fit]. With `Cc1ccc(-c2nnc(Nc3ccc(Br)cc3)c3ccccc23)cc1S(=O)(=O)N1CCN(C)CC1` the Potency was inconclusive: 28.2 µM [inhibitor, partial curve, poor fit]. `COc1ccc(CCNC(=O)Cc2c(C)c3c(cc(C)c4c(C)coc43)oc2=O)cc1OC` was tested, and the activity change, negative = inhibition was inconclusive: -37.2% [inhibitor]. For `Cn1cccc1-c1nc(-c2nnn3c2COC(c2ccccc2Cl)C3)no1` (stereo not given), the Potency was inconclusive: 28.2 µM [inhibitor, partial curve, poor fit]. `CCN(c1ccccc1)C(CNS(=O)(=O)c1ccccc1)c1ccccc1` (stereo not given) was tested, and the Potency was inconclusive: 28.2 µM [inhibitor, single point]. `CCCc1noc(-c2cccn3c(CNC(=O)CCc4ccccc4)nnc23)n1` was tested, and the Potency was active: 17.8 µM. With `Cc1nn(-c2ccccc2)nc1C(=O)Oc1cc(C(F)(F)F)nn1-c1ccccc1` the Potency was inconclusive: 39.8 µM [inhibitor, partial curve, poor fit]. For `Cc1ncsc1C(=O)N1CCC2(CC1)OC(=O)N(Cc1ccccc1F)C2(C)c1ccccc1` (stereo not given), the “activity change, negative = inhibition” value was inactive: 1.19%. With `CCn1cc(CN2CCN(C(=O)c3ccc4[nH]ccc4c3)CC2)ccc1=O` the Potency was inconclusive: 15.8 µM [inhibitor, partial curve, poor fit]. `COc1ccc(-c2nc(C3CC(=O)N(c4ccc(F)cc4)C3)no2)cc1` (stereo not given) was tested, and the “activity change, negative = inhibition” value was inactive: 47.5%. `Cc1cc(C(=O)CN2CCN(c3ccc(O)cc3)CC2)c(C)n1C1CCS(=O)(=O)C1` (stereo not given) was tested, and the Potency was inconclusive: 14.1 µM [inhibitor, partial curve, poor fit]. For `COc1ncc(-c2ccc3ncn(-c4ccc(F)cc4F)c(=O)c3n2)cn1`, the Potency was active: 39.8 µM. For `O=C(NCC1CC1)C1CCCN1c1nc2ncccc2o1` (stereo not given), the Potency was inconclusive: 31.6 µM [inhibitor, single point]. `CCOC(=O)C1(Cc2ccc(Cl)cc2)CCN(C(=O)c2cc(C)oc2C)CC1` was tested, and the Potency was active: 31.6 µM. In the case of `CCCCOc1ccc(C(=O)N2CCC[C@H]2c2nc(-c3ccc(F)cc3)no2)cc1`, the “activity change, negative = inhibition” value is reported as inactive: -19.9%. `CCCc1noc(-c2cccn3c(CNC(=O)c4ccc(N(C)C)cc4)nnc23)n1` was tested, and the Potency was inconclusive: 35.5 µM [inhibitor, partial curve, poor fit]. With `O=C(O)c1c[nH]c2ncccc12` the Potency was inconclusive: 31.6 µM [inhibitor, partial curve, poor fit]. With `COc1ccc(C(=O)NC2CCCN(CCc3ccccc3)C2)c(OC)n1` (stereo not given) the “activity change, negative = inhibition” value was inactive: -22%. With `CCOc1cccc(C2Nc3ccccc3-c3cc(C)nn32)c1O` (stereo not given) the Potency was inconclusive: 35.5 µM [inhibitor, partial curve, poor fit]. With `Cc1nn(S(=O)(=O)c2ccccc2)c(C)c1S(=O)(=O)N1CCC(C)CC1` the Potency was inconclusive: 39.8 µM [inhibitor, single point]. In the case of `O=[S+]1([O-])NC2(CCN(CC3CC3)C2)CNc2ccccc21` (stereo not given), the Potency is reported as inconclusive: 50.1 µM [inhibitor, single point].
